# PMC4336329 (PLoS ONE, 2015)
# Hit rate of the full screen: of about 310,000 compounds, about 14,000 (4.5%) showed an effect of 50% or more. Effects have a minus sign here. The list shows a part of the results.
# Target: human ether-à-go-go-related gene (hERG) potassium channel (human, UniProt Q12809)
# Experiment: primary screen, population patch clamp on CHO cells stably expressing hERG
# 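Also: peak tail current of the secondary pulse compared with the same well before compound.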
# Sequence of human ether-à-go-go-related gene (hERG) potassium channel (Q12809 whole entry, looked up): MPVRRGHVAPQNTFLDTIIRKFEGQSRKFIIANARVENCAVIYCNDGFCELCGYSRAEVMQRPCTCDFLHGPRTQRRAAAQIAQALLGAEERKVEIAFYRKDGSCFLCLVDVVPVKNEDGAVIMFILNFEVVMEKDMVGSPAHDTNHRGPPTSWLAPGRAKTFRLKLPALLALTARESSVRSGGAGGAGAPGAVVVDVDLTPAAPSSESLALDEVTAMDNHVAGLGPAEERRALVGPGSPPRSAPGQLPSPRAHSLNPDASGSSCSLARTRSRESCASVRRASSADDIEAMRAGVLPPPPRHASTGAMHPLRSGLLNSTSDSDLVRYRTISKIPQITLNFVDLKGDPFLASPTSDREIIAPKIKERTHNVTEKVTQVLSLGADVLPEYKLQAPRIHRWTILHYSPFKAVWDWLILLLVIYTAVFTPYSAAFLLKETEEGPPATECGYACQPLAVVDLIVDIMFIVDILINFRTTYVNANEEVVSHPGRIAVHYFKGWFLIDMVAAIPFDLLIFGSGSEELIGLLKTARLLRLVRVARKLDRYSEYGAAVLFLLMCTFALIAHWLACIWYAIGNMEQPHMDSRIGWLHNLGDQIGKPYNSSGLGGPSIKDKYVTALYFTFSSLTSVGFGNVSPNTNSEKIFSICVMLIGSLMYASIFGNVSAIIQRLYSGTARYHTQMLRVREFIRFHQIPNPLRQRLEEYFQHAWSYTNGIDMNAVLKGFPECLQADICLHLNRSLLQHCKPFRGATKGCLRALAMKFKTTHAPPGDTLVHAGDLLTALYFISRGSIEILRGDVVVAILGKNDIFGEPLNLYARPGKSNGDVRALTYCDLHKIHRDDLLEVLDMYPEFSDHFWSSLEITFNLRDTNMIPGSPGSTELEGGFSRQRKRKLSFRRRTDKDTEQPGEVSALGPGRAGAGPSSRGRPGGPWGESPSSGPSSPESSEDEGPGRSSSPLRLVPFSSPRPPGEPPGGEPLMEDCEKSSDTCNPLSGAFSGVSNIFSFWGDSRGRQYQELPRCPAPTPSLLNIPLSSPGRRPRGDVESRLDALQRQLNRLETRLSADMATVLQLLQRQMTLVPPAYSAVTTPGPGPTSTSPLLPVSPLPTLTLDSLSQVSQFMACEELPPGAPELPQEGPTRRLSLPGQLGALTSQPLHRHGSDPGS
row,SMILES,"hERG current change (%, negative = inhibition) at 10uM"
1,CCOC(=O)N1CCN(S(=O)(=O)N2CCCC(C(=O)NCc3ccc(OC)cc3)C2)CC1 (stereo not drawn),1.39%
2,O=S(=O)(NCc1ccccc1Cl)c1ccc(-n2cccn2)cc1,14.2%
3,O=C(Cc1cccc2ccccc12)Nc1ccc2oc(-c3ccccc3)nc2c1,7.35%
4,CCC1CCCCN1C(=O)CCc1nnc(C2CCCCC2)o1 (stereo not drawn),-55%
5,O=C(Cc1ccc(S(=O)(=O)N2CCOCC2)s1)NCC1CCCCC1,-9.9%
6,CCc1cc(C(=O)N2CCCC(C(=O)c3cccc(OC(C)C)c3)C2)n(C)n1 (stereo not drawn),-6.49%
7,Cc1ccc(CCSCC(=O)O)cn1,18.9%
8,Cc1c(CCOC(=O)C23CC4(C)CC(C)(CC(C)(C4)C2)C3)sc[n+]1CC(=O)c1ccccc1.[Br-],-19.5%
9,CN1CCN(C(=S)NC(=O)c2ccccc2Br)CC1,11.2%
10,COc1cccc(/C=N/Nc2nc3ccccc3[nH]2)c1OC,16.6%
11,CC(=O)c1ccc(N2CCN(CC(=O)NC(=O)NCc3ccccc3)CC2)cc1,3.62%
12,CCn1c(Cn2nnc(-c3ccccc3)n2)nnc1SCC(=O)Nc1cccc(C)c1C,-29.8%
13,N#C/C(=C/c1ccc(N2CCOCC2)c([N+](=O)[O-])c1)C(N)=O,-39.8%
14,Cc1ccc(C)c(NC(=O)c2nc(Cl)ccc2Cl)c1,15%
15,O=C(NC1CCCCC1NC(=O)c1ccco1)c1ccco1 (stereo not drawn),13%
16,CC(NC(=O)CCc1nnc(Cc2cccc(C(F)(F)F)c2)o1)C1CC1 (stereo not drawn),6.51%
17,CC(=O)c1cccc(S(=O)(=O)N2CCCC(c3nc(-c4ccc(C)o4)no3)C2)c1 (stereo not drawn),-33.3%
18,CCC(=O)Nc1cc2nn(-c3ccccc3)nc2cc1Cl,5.35%
19,O=C(NCc1ccc(F)cc1)C1CCCN(S(=O)(=O)c2cccnc2)C1 (stereo not drawn),-12.1%
20,Cc1csc(=O)n1CC(=O)OCC(=O)NCc1ccc(F)cc1,6.31%
21,CCCC(C)C(=O)NCc1ccc2c(c1)OCO2 (stereo not drawn),13.8%
22,C=CCn1c(O)c(C(C)=NCCc2c[nH]c3ccccc23)c(=O)[nH]c1=O,-31.9%

row,SMILES,"hERG current change (%, negative = inhibition) at 10uM"
1,Cc1oc2c(cc(NS(=O)(=O)c3ccc(Cl)cc3)c3ccccc32)c1C(=O)O,9.18%
2,O=C(CCN1C(=O)C2C3C=CC(C3)C2C1=O)N1CCN(c2ccccc2Cl)CC1 (stereo not drawn),-57.2%
3,CCN(CC)CCC(=O)N1c2ccccc2Sc2ccc(NC(=O)OC)cc21,-34.8%
4,COc1ccc(-c2csc3ncnc(N4CCN(S(=O)(=O)c5ccccc5C#N)CC4)c23)cc1,7.42%
5,O=C(C[n+]1cc(Br)cc(Br)c1)c1cccc([N+](=O)[O-])c1.[Cl-],-8.4%
6,COC(=O)Cn1c(=NC(=O)c2cccc(OC)c2)sc2cc(OC)ccc21,-1.13%
7,COc1ccc(/C=N/S(=O)(=O)c2cccs2)cc1,5.1%
8,Cc1ccc(C2=N/C(=C\c3cccs3)C(=O)N2Nc2ccccc2)cc1,11.7%
9,c1ccc(-c2onc3c2CCCC3)cc1,-8.78%
10,Cc1oc(-c2ccccc2Cl)nc1CS(=O)CC(=O)NC1CC1 (stereo not drawn),7.58%
11,O=C(O)c1ccc(Cl)c(S(=O)(=O)N(Cc2ccccc2)c2ccccc2Cl)c1,15.4%
12,CCn1c(=O)cc(SCC(=O)NCc2ccco2)c2ccccc21,-22.3%
13,COc1ccc(C(C)C)cc1S(=O)(=O)Nc1ccccn1,-5.43%
14,COC(=O)CNC(=O)C1Nc2ccc(OC(F)(F)F)cc2C2C=CCC12 (stereo not drawn),-3.38%
15,CN(C)C1=NC[C@H](Cc2ccccc2)N1CCCC1CCCC1,-71.2%
16,CC(C)(C)[C@@H]1C=C(C(=O)O)O[C@H](OCCCCO)C1,10.8%
17,COc1cccc(C2CC(c3ccccc3Cl)n3nnnc3N2)c1 (stereo not drawn),-12.1%
18,O=C(Nc1ccc(S(=O)(=O)N2CCCCC2)cc1)c1ccc(=O)[nH]c1,7.49%
19,O=C(O)/C=C/c1ccc(S(=O)(=O)NCc2ccco2)cc1,6.64%
20,Cc1ccc(C(C)C)c(OCCNCc2ccccc2)c1.O=C(O)C(=O)O,19.2%
21,COCCNC(=S)N1CCN(c2nc3ccccc3s2)CC1,1.16%
22,O=C(O)c1cc2cc(OCc3ccccc3)ccc2[nH]1,7.37%

row,SMILES,"hERG current change (%, negative = inhibition) at 10uM"
1,CN1C(=O)C(=Cc2cccnc2)C(=O)N(C)C1=O,9.85%
2,NNC(=O)c1ccc(COc2ccc3ccccc3c2)cc1,8%
3,CC(=O)c1cn(Cc2ccc(C#N)cc2)c2ccccc12,-19.9%
4,N#CC1(NC(=O)CSc2nnc(-c3ccccc3F)n2N)CCCCC1,1.29%
5,COC(=O)c1sccc1NC(=O)CSc1ccccc1NS(=O)(=O)c1ccccc1Cl,8.23%
6,CCc1nc2n(n1)C(O)c1cc([N+](=O)[O-])ccc1S2 (stereo not drawn),-5.21%
7,Cc1ccnc(NS(=O)(=O)c2ccc(NC(=O)c3ccc([N+](=O)[O-])s3)cc2)n1,-7.64%
8,CCOc1ccccc1C1C(C(N)=O)=C(C)Nc2nc(-c3ccc(OC)cc3)nn21 (stereo not drawn),0.518%
9,Cc1ccc2nc(C)c(C(=O)N/N=C/c3cccs3)cc2c1,-8.89%
10,CN(C)CCc1nc2ccccc2c(=O)n1-c1ccccc1.Cl,-12.6%
11,COc1ccc2c(C(F)(F)F)cc(=O)oc2c1C,3.45%
12,CN(C)c1ncnc2c1ncn2C1OC(CO)C(O)C1O (stereo not drawn),13.9%
13,COc1cc2nc(N(CCCN(C)C)C(=O)c3ccc(S(=O)(=O)N(C)C4CCCCC4)cc3)sc2cc1OC.Cl,-51.6%
14,COc1cccc(C(=O)Nc2ccccc2NC(=O)c2cccc(OC)c2)c1,-9.29%
15,COC(=O)c1c(C(=O)OC)c2n(c1C)CCS2,3.54%
16,C/C(Cn1cnc([N+](=O)[O-])n1)=N\NC(=O)c1ccccc1,11.6%
17,O=C(/C(=C(/[O-])c1ccccc1)[n+]1ccccc1)c1ccc([N+](=O)[O-])cc1,6.47%
18,Cc1ccc(S(=O)(=O)NCCC(=O)NCC(c2cccs2)N(C)C)cc1C (stereo not drawn),7.24%
19,COc1ccc(-n2nc(C(=O)N3CCC(C#N)CC3)c3c4ccccc4n(C)c3c2=O)cc1,-55.5%
20,O=C(CN1CCN(C(=O)c2ccco2)CC1)NCc1ccc(Cl)cc1,-64.4%
21,O=C(NCc1cccnc1)c1cnn2ccccc12,11.5%
22,CSc1nc2sc3c(c2c(=O)[nH]1)CCc1ccccc1-3,-1.75%

row,SMILES,"hERG current change (%, negative = inhibition) at 10uM"
1,CCOc1ccc(C2c3[nH]c4ccccc4c3C[C@H]3C(=O)N(C4CC4)CC(=O)N23)cc1OC (stereo partly drawn),-15.2%
2,O=C1COc2ccc(C(=O)COC(=O)c3ccco3)cc2N1,3.46%
3,COc1cccc(=O)c2c(C)n(-c3ccc(C(=O)O)cc3)c(C)c12,6.33%
4,Cc1cc(=O)oc2cc(OCCSCCN3CCCCC3)ccc12,-16.5%
5,COC(=O)c1ccc(NC(=O)CSCc2ccc(C)cc2)cc1,-3.62%
6,COc1ccc(CCNC(=O)C(C)Sc2ccc(C)cc2)cc1OC (stereo not drawn),-9.5%
7,CC1CCCN(C2=C(Cl)C(=O)N(c3cccc(Cl)c3)C2=O)C1 (stereo not drawn),-27.4%
8,CN(/N=C/c1ccc(-c2ccc([N+](=O)[O-])cc2)o1)c1ccccc1,9.11%
9,CCn1c2ccccc2c2cc(NC(=O)CSc3nnc(-c4cccc(F)c4)o3)ccc21,-0.775%
10,O=C(CSc1ncc(-c2ccccc2)n1CC1CCCO1)N1CCCCC1 (stereo not drawn),10.1%
11,CN(C)S(=O)(=O)c1ccc(S(=O)(=O)N(CC(=O)Nc2ccccc2)Cc2ccco2)cc1,10.6%
12,CCc1cc2c3c([nH]c2cc1S(=O)(=O)N1CCC2(CC1)OCCO2)CCCC3=O,16.8%
13,COc1ccccc1-c1nn(Cc2ccccc2)cc1C(=O)NCC(c1ccco1)N1CCCC1 (stereo not drawn),-64%
14,Cc1onc(-c2ccccc2)c1C(=O)OCC(=O)Nc1ccc(C#N)cc1,-27.7%
15,O=C(CC1(O)C(=O)N(CCc2ccccc2)c2ccccc21)c1ccccn1 (stereo not drawn),13.5%
16,Cc1cc(C(=O)Cn2cnc3cc([N+](=O)[O-])ccc3c2=O)c(C)n1CC1CCCO1 (stereo not drawn),-17.7%
17,COC(=O)c1ccc(CN(c2ccc(C)cc2)S(=O)(=O)c2ccc3c(c2)OCCO3)o1,8.39%
18,COCCN(C(=O)CSc1n[nH]c(-c2ccccc2)n1)c1c(N)n(CC(C)C)c(=O)[nH]c1=O,22.6%
19,COc1ccc(C2(C)NC(=O)NC2=O)cc1OC (stereo not drawn),10.3%
20,CC1=CC(=O)C=C(C)C1=NOc1ccccc1[N+](=O)[O-],12.8%
21,CC(Nc1cc(N2CCN(S(=O)(=O)N(C)C)CC2)ccc1[N+](=O)[O-])c1ccccc1 (stereo not drawn),7.88%
